The list shows a part of the results. Sequences were assembled here from the parent chain. Inactive controls read about 0.05.
B1: TEV protease; numbered along this chain (parent)
chain: MGESLFKGPRDYNPISSSICHLTNESDGHTTSLYGIGFGPFIITNKHLFRRNNGTLVVQSLHGVFKVKDTTTLQQHLVDGRDMIIIRMPKDFPPFPQKLKFREPQREERICLVTTNFQTKSMSSMVSDTSCTFPSGDGIFWKHWIQTKDGQCGSPLVSTRDGFIVGIHSASNFTNTNNYFTSVPKNFMELLTNQEAQQWVSGWRLNADSVLWGGHKVFMVKPEEPFQPVKEATQL

Variants of: B1
Experiment: raw area under fraction-flipped curve 0-4 h after induction (AUC4h, not background-subtracted), DNA-recorder readout of cleavage of the substrate (dimensionless); higher = more cleavage of the substrate by the protease variant
Settings: temperature: 34 °C; time window: 0-4 h after rhamnose induction
Protocol: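 In vivo DNA recorder in E. coli TOP10(DE3) ΔrhaA at 34 °C. Each TEVp single-site mutant (parent TEVp 0) is paired with a single-site variant of the 7-mer TEVs (canonical ENLYFQ|S). The substrate sits between flexible linkers in a Bxb1-sfGFP-TEVs-SsrA fusion, so cleavage stabilises Bxb1 and speeds flipping of a recombination array, read by NGS. The value is the raw area under the fraction-flipped curve over 0-4 h after rhamnose induction (AUC4h), with ≥20 reads per time point. It is not background-subtracted; inactive controls average about 0.047.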
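Note: Bxb1 expression induced with 0.2% (w/v) L-rhamnose at OD600 near 0.5, cultures sampled hourly, flipped fraction per protease–substrate barcode pair counted by paired-end Illumina sequencing.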

**Q.** With MGESLFKGPRDYNPISSSICHLTNESDGHTTSLYGIGFGPFIITNKHLFRRNNGTLVVQSLHGVFKVKDTTTLQQHLVDGRDMIIIRMPKDFPPFPQKLKFREPQREERICLVTTNFQTCSMSSMVSDTSCTFPSGDGIFWKHWIQTKDGQCGSPLVSTRDGFIVGIHSASNFTNTNNYFTSVPKNFMELLTNQEAQQWVSGWRLNADSVLWGGHKVFMVKPEEPFQPVKEATQL [K120C] as the variant, how does the “area with substrate ENLYAQS” value read?
**A.** 0.0687

**Q.** What about the “area with substrate ENLYCQS” value of the same variant?
**A.** 0.0865

**Q.** And the “area with substrate ENLYDQS” value?
**A.** 0.0615

**Q.** And the “area with substrate ENLYEQS” value?
**A.** 0.0715

**Q.** What about the “area with substrate ENLYGQS” value of the same variant?
**A.** 0.0708

**Q.** And the “area with substrate ENLYHQS” value?
**A.** 0.0723

**Q.** What about the “area with substrate ENLYIQS” value of the same variant?
**A.** 0.0903

**Q.** What about the “area with substrate ENLYKQS” value of the same variant?
**A.** 0.0614

**Q.** And the “area with substrate ENLYMQS” value?
**A.** 0.0887

**Q.** What about the “area with substrate ENLYNQS” value of the same variant?
**A.** 0.0744

**Q.** What about the “area with substrate ENLYWQS” value of the same variant?
**A.** 0.0721

**Q.** What about the “area with substrate ENLYYQS” value of the same variant?
**A.** 0.0859

**Q.** Which “area with substrate ENLYAQS” value does the source give for MGESLFKGPRDYNPISSSICHLTNESDGHTTSLYGIGFGPFIITNKHLFRRNNGTLVVQSLHGVFKVKDTTTLQQHLVDGRDMIIIRMPKDFPPFPQKLKFREPQREERICLVTTNFQTDSMSSMVSDTSCTFPSGDGIFWKHWIQTKDGQCGSPLVSTRDGFIVGIHSASNFTNTNNYFTSVPKNFMELLTNQEAQQWVSGWRLNADSVLWGGHKVFMVKPEEPFQPVKEATQL [K120D] here?
**A.** 0.0779

**Q.** What about the “area with substrate ENLYCQS” value of the same variant?
**A.** 0.0876

**Q.** And the “area with substrate ENLYDQS” value?
**A.** 0.0748

**Q.** What about the “area with substrate ENLYEQS” value of the same variant?
**A.** 0.0747

**Q.** What about the “area with substrate ENLYHQS” value of the same variant?
**A.** 0.0664

**Q.** And the “area with substrate ENLYIQS” value?
**A.** 0.102

**Q.** What about the “area with substrate ENLYMQS” value of the same variant?
**A.** 0.0863

**Q.** And the “area with substrate ENLYNQS” value?
**A.** 0.0701

**Q.** What about the “area with substrate ENLYPQS” value of the same variant?
**A.** 0.0838

**Q.** What about the “area with substrate ENLYWQS” value of the same variant?
**A.** 0.0535

**Q.** What does the source list for MGESLFKGPRDYNPISSSICHLTNESDGHTTSLYGIGFGPFIITNKHLFRRNNGTLVVQSLHGVFKVKDTTTLQQHLVDGRDMIIIRMPKDFPPFPQKLKFREPQREERICLVTTNFQTNSMSSMVSDTSCTFPSGDGIFWKHWIQTKDGQCGSPLVSTRDGFIVGIHSASNFTNTNNYFTSVPKNFMELLTNQEAQQWVSGWRLNADSVLWGGHKVFMVKPEEPFQPVKEATQL [K120N]?
**A.** area with substrate ENLYAQS: 0.0731; area with substrate ENLYDQS: 0.058; area with substrate ENLYGQS: 0.0874; area with substrate ENLYIQS: 0.107; area with substrate ENLYKQS: 0.0628; area with substrate ENLYMQS: 0.0606; area with substrate ENLYPQS: 0.0788; area with substrate ENLYRQS: 0.069; area with substrate ENLYSQS: 0.0667; area with substrate ENLYVQS: 0.138

**Q.** What does the source list for MGESLFKGPRDYNPISSSICHLTNESDGHTTSLYGIGFGPFIITNKHLFRRNNGTLVVQSLHGVFKVKDTTTLQQHLVDGRDMIIIRMPKDFPPFPQKLKFREPQREERICLVTTNFQTKQMSSMVSDTSCTFPSGDGIFWKHWIQTKDGQCGSPLVSTRDGFIVGIHSASNFTNTNNYFTSVPKNFMELLTNQEAQQWVSGWRLNADSVLWGGHKVFMVKPEEPFQPVKEATQL [S121Q]?
**A.** area with substrate ENLYAQS: 0.0687; area with substrate ENLYDQS: 0.0828; area with substrate ENLYEQS: 0.0781; area with substrate ENLYGQS: 0.0625; area with substrate ENLYHQS: 0.0709; area with substrate ENLYIQS: 0.132; area with substrate ENLYKQS: 0.0387; area with substrate ENLYLQS: 0.102; area with substrate ENLYMQS: 0.0779; area with substrate ENLYNQS: 0.0655; area with substrate ENLYQQS: 0.0713; area with substrate ENLYSQS: 0.0403; area with substrate ENLYVQS: 0.131; area with substrate ENLYWQS: 0.0848; area with substrate ENLYYQS: 0.0727

**Q.** For MGESLFKGPRDYNPISSSICHLTNESDGHTTSLYGIGFGPFIITNKHLFRRNNGTLVVQSLHGVFKVKDTTTLQQHLVDGRDMIIIRMPKDFPPFPQKLKFREPQREERICLVTTNFQTKSMWSMVSDTSCTFPSGDGIFWKHWIQTKDGQCGSPLVSTRDGFIVGIHSASNFTNTNNYFTSVPKNFMELLTNQEAQQWVSGWRLNADSVLWGGHKVFMVKPEEPFQPVKEATQL [S123W], which “area with substrate ENLYAQS” value is on record?
**A.** 0.0815

**Q.** What about the “area with substrate ENLYCQS” value of the same variant?
**A.** 0.094

**Q.** What about the “area with substrate ENLYDQS” value of the same variant?
**A.** 0.0699

**Q.** And the “area with substrate ENLYEQS” value?
**A.** 0.0691

**Q.** What about the “area with substrate ENLYGQS” value of the same variant?
**A.** 0.0492

**Q.** And the “area with substrate ENLYHQS” value?
**A.** 0.0654

**Q.** What about the “area with substrate ENLYIQS” value of the same variant?
**A.** 0.141

**Q.** And the “area with substrate ENLYKQS” value?
**A.** 0.0364

**Q.** What about the “area with substrate ENLYLQS” value of the same variant?
**A.** 0.12

**Q.** And the “area with substrate ENLYMQS” value?
**A.** 0.089

**Q.** And the “area with substrate ENLYNQS” value?
**A.** 0.0749

**Q.** What about the “area with substrate ENLYPQS” value of the same variant?
**A.** 0.0732

**Q.** And the “area with substrate ENLYQQS” value?
**A.** 0.0651

**Q.** What about the “area with substrate ENLYRQS” value of the same variant?
**A.** 0.0504

**Q.** And the “area with substrate ENLYSQS” value?
**A.** 0.067

**Q.** What about the “area with substrate ENLYTQS” value of the same variant?
**A.** 0.104

**Q.** What about the “area with substrate ENLYVQS” value of the same variant?
**A.** 0.109

**Q.** What about the “area with substrate ENLYWQS” value of the same variant?
**A.** 0.0826

**Q.** What about the “area with substrate ENLYYQS” value of the same variant?
**A.** 0.0571

**Q.** What does the source list for MGESLFKGPRDYNPISSSICHLTNESDGHTTSLYGIGFGPFIITNKHLFRRNNGTLVVQSLHGVFKVKDTTTLQQHLVDGRDMIIIRMPKDFPPFPQKLKFREPQREERICLVTTNFQTKSMSSDVSDTSCTFPSGDGIFWKHWIQTKDGQCGSPLVSTRDGFIVGIHSASNFTNTNNYFTSVPKNFMELLTNQEAQQWVSGWRLNADSVLWGGHKVFMVKPEEPFQPVKEATQL [M125D]?
**A.** area with substrate ENLYAQS: 0.0625; area with substrate ENLYDQS: 0.0647; area with substrate ENLYEQS: 0.0723; area with substrate ENLYGQS: 0.0573; area with substrate ENLYHQS: 0.0822; area with substrate ENLYIQS: 0.138; area with substrate ENLYKQS: 0.0512; area with substrate ENLYMQS: 0.066; area with substrate ENLYNQS: 0.0782; area with substrate ENLYPQS: 0.0672; area with substrate ENLYQQS: 0.0637; area with substrate ENLYRQS: 0.0678; area with substrate ENLYSQS: 0.0468; area with substrate ENLYVQS: 0.102; area with substrate ENLYWQS: 0.0858; area with substrate ENLYYQS: 0.0626

**Q.** What does the source list for MGESLFKGPRDYNPISSSICHLTNESDGHTTSLYGIGFGPFIITNKHLFRRNNGTLVVQSLHGVFKVKDTTTLQQHLVDGRDMIIIRMPKDFPPFPQKLKFREPQREERICLVTTNFQTKSMSSMVSQTSCTFPSGDGIFWKHWIQTKDGQCGSPLVSTRDGFIVGIHSASNFTNTNNYFTSVPKNFMELLTNQEAQQWVSGWRLNADSVLWGGHKVFMVKPEEPFQPVKEATQL [D128Q]?
**A.** area with substrate ENLYAQS: 0.0845; area with substrate ENLYCQS: 0.11; area with substrate ENLYDQS: 0.0687; area with substrate ENLYEQS: 0.0725; area with substrate ENLYGQS: 0.0601; area with substrate ENLYHQS: 0.0824; area with substrate ENLYKQS: 0.0275; area with substrate ENLYMQS: 0.0919; area with substrate ENLYNQS: 0.0819; area with substrate ENLYPQS: 0.0773; area with substrate ENLYQQS: 0.0365; area with substrate ENLYRQS: 0.0611; area with substrate ENLYSQS: 0.114; area with substrate ENLYWQS: 0.0976; area with substrate ENLYYQS: 0.119

**Q.** Which results are given for MGESLFKGPRDYNPISSSICHLTNESDGHTTSLYGIGFGPFIITNKHLFRRNNGTLVVQSLHGVFKVKDTTTLQQHLVDGRDMIIIRMPKDFPPFPQKLKFREPQREERICLVTTNFQTKSMSSMVSDTSCMFPSGDGIFWKHWIQTKDGQCGSPLVSTRDGFIVGIHSASNFTNTNNYFTSVPKNFMELLTNQEAQQWVSGWRLNADSVLWGGHKVFMVKPEEPFQPVKEATQL [T132M]?
**A.** area with substrate ENLYAQS: 0.0744; area with substrate ENLYCQS: 0.122; area with substrate ENLYDQS: 0.0578; area with substrate ENLYEQS: 0.0727; area with substrate ENLYHQS: 0.0757; area with substrate ENLYIQS: 0.125; area with substrate ENLYKQS: 0.0539; area with substrate ENLYMQS: 0.0936; area with substrate ENLYNQS: 0.0735; area with substrate ENLYPQS: 0.0693; area with substrate ENLYSQS: 0.0597; area with substrate ENLYTQS: 0.084; area with substrate ENLYVQS: 0.0888; area with substrate ENLYYQS: 0.0641

**Q.** With MGESLFKGPRDYNPISSSICHLTNESDGHTTSLYGIGFGPFIITNKHLFRRNNGTLVVQSLHGVFKVKDTTTLQQHLVDGRDMIIIRMPKDFPPFPQKLKFREPQREERICLVTTNFQTKSMSSMVSDTSCTFCSGDGIFWKHWIQTKDGQCGSPLVSTRDGFIVGIHSASNFTNTNNYFTSVPKNFMELLTNQEAQQWVSGWRLNADSVLWGGHKVFMVKPEEPFQPVKEATQL [P134C] as the variant, how does the “area with substrate ENLYAQS” value read?
**A.** 0.0662

**Q.** And the “area with substrate ENLYDQS” value?
**A.** 0.0501

**Q.** And the “area with substrate ENLYEQS” value?
**A.** 0.0676

**Q.** What about the “area with substrate ENLYGQS” value of the same variant?
**A.** 0.0409

**Q.** And the “area with substrate ENLYHQS” value?
**A.** 0.0646

**Q.** What about the “area with substrate ENLYIQS” value of the same variant?
**A.** 0.0926

**Q.** What about the “area with substrate ENLYLQS” value of the same variant?
**A.** 0.0792

**Q.** What about the “area with substrate ENLYMQS” value of the same variant?
**A.** 0.076

**Q.** What about the “area with substrate ENLYNQS” value of the same variant?
**A.** 0.0658

**Q.** What about the “area with substrate ENLYPQS” value of the same variant?
**A.** 0.0544

**Q.** What about the “area with substrate ENLYQQS” value of the same variant?
**A.** 0.0402

**Q.** What about the “area with substrate ENLYSQS” value of the same variant?
**A.** 0.0684

**Q.** And the “area with substrate ENLYTQS” value?
**A.** 0.061

**Q.** What about the “area with substrate ENLYVQS” value of the same variant?
**A.** 0.0955

**Q.** What about the “area with substrate ENLYWQS” value of the same variant?
**A.** 0.0744

**Q.** What about the “area with substrate ENLYYQS” value of the same variant?
**A.** 0.0507

Reference: the supplement of paper PMC12217912
